# Measurements taken from PubChem BioAssay AID686979 (National Center for Advancing Translational Sciences (NCATS), 2013).
# Out of some 420,000 compounds screened, about 50,000 (12%) were called active. Inconclusive results, whose numbers are uncertain, are shown with a selection of clear calls. The call rests on the fitted dose curve; in most records, active means well fitted inhibition curve with a large enough effect; inconclusive means small, poorly fitted or top-dose-only effect; inactive means flat fitted curve, though single readings scatter. No potency is given beside an inconclusive call; the fits are too rough.
# Assay: qHTS for Inhibitors of human tyrosyl-DNA phosphodiesterase 1 (TDP1): qHTS in cells in presence of CPT; further: nearly all actives have a fitted effect of over 55% in size
# Conditions: chicken DT40 Tdp1-/-;hTDP1 cells + 20 nM CPT, ATP luminescence, 48 h; activity change, negative = growth inhibition: at 46.2 µM (top of the series) unless noted
# How it was run: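 Chicken DT40 Tdp1-/- cells complemented with human TDP1, 400 cells/well, exposed to compounds plus 20 nM camptothecin for at least 48 h at 37 C; viability read as ATP content by CellTiter-Glo luminescence.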
# On the % scale 0 is the no-effect control and ±100 the full control effect; potency means the concentration at half of the fitted maximal effect; tags describe the fitted curve by direction and shape.
SMILES,Potency,"activity change, negative = growth inhibition"
COc1ccccc1CNC(=O)c1ccc(C)c(-n2cnc3cccnc32)c1,"inconclusive [inhibitor, single point]",
COc1ccc(CCNC(=O)c2cc3ccc(Cl)cc3nc2N)cc1,"inconclusive [inhibitor, partial curve]",
Cc1cc(C)c(NC(=O)CN(CC(=O)O)CC(=O)O)c(C)c1Br,"inconclusive [inhibitor, single point]",
CC1(C)CC(=O)C(N=Nc2c(Cl)cc(Cl)cc2Cl)=C(O)C1,"inconclusive [inhibitor, single point]",
CCc1nnc2c3ccccc3nc(N3CCN(c4ccc(C)cc4C)CC3)n12,"inconclusive [inhibitor, full curve]",
CC(C)n1cnc2cc(NCc3ccco3)ccc21,"inconclusive [inhibitor, single point]",
COc1ccc(NC(=S)N2CCN(C(=O)c3ccco3)CC2)cc1,,inactive: -10.4%
COc1ccc(CN2C(=O)C(NC(=O)c3ccc(C)cc3)(C(F)(F)F)N=C2c2ccccc2)cc1 (stereo not drawn),active: 23.1 µM,
C/C=C/C(=O)OCC(=O)Nc1c(Cl)cccc1Cl,,inactive: -6.29%
c1ccc(-c2cc3c(N4CCN(c5ncccn5)CC4)ncnc3s2)cc1,"inconclusive [inhibitor, single point]",
CCOC(=O)c1ccccc1NC(=O)CN(c1ccccc1OC)S(=O)(=O)c1ccc(C)cc1,"inconclusive [inhibitor, single point]",
CCC(C)C(=O)Nc1nnc(SCC(=O)Nc2ccc(F)cc2)s1 (stereo not drawn),"inconclusive [inhibitor, single point]",
COc1ccc(CN(C)C(=O)c2cc(-c3ccc(C)cc3C)nc3ccccc23)c(OC)c1OC,"inconclusive [inhibitor, single point]",
O=C(CCCn1c(=O)c2cccn2c2cccnc21)NCCc1ccc(Cl)cc1,active: 20.6 µM,
Cc1cc(Br)ccc1NC(=O)c1cc2c(s1)-c1ccccc1SC2,"inconclusive [inhibitor, single point]",
O=C(N/N=C/c1cccc(NC(=O)c2ccc(Cl)cc2)c1)c1cccc(O)c1,"inconclusive [inhibitor, single point]",
COc1ccc(NS(=O)(=O)c2ccc3oc(SCC(N)=O)nc3c2)cc1,"inconclusive [inhibitor, single point]",
Fc1ccc(NC(=S)NN=C2CCCCCC2)cc1,"inconclusive [inhibitor, single point]",
CC(C)Oc1ccc(C2c3c(oc4ccccc4c3=O)C(=O)N2CCCN2CCOCC2)cc1 (stereo not drawn),active: 25.9 µM,
CC(Oc1cc2oc(=O)c3c(c2cc1Cl)CCCC3)C(=O)NCc1cccnc1 (stereo not drawn),"inconclusive [inhibitor, single point]",
Cn1cc(CCC(=O)NC2CC(C)(C)Cc3c2cnn3-c2ccc(F)cc2)cn1 (stereo not drawn),"inconclusive [inhibitor, full curve, poor fit]",
COc1ccc(C(=O)NCCc2ccc(Cl)cc2)cc1S(=O)(=O)N1CCCCC1C (stereo not drawn),"inconclusive [inhibitor, single point]",
CCOC(=O)N1CCc2c(sc3c2c(=O)n(-c2ccc(Cl)cc2)c(=O)n3CC(=O)c2ccc(F)cc2)C1,"inconclusive [inhibitor, single point]",

SMILES,Potency,"activity change, negative = growth inhibition"
COc1cccc(NC(=O)COC(=O)C2CC3CCCC(C2)C3=O)c1 (stereo not drawn),,inactive: -11.8%
COc1ccnc2c1c(=O)n(Cc1cccc(F)c1)c(=O)n2C,,inactive: -11.8%
CS(=O)(=O)N(CC(=O)N1CCN(c2ccccc2)CC1)c1cc(C(F)(F)F)ccc1Cl,,inconclusive: -31.8% [inhibitor]
CS(=O)(=O)N(CC(=O)NCc1ccccc1)Cc1ccc(Cl)cc1,,inconclusive: -34.3% [inhibitor]
CC(C)(C)c1ccc(-c2nc(C=O)c3ccccn23)cc1,"inconclusive [inhibitor, single point]",
Cc1cccc(NC(=S)NC23CN4CN(CN(C4)C2)C3)c1,"inconclusive [inhibitor, partial curve]",
C=CCNC(=O)C(C#N)c1nc2ccccc2nc1N1CCN(Cc2ccccc2)CC1 (stereo not drawn),,inactive: 3.65%
CCc1ccc(C(=O)N2CCN(c3ccc(NC(=O)c4cccnc4)cc3)CC2)cc1,"inconclusive [inhibitor, partial curve]",
COCOCCn1cc(CN2CCS(=O)(=O)N(Cc3ccc(-c4cccc(CO)c4)cc3)C(CC(C)C)C2=O)nn1 (stereo not drawn),"inconclusive [inhibitor, single point]",
Cc1ccccc1C(=O)NC(=S)Nc1ccc(S(=O)(=O)N2CCOCC2)cc1,"inconclusive [inhibitor, single point]",
Cc1ccc(NC(=O)Cn2cc(C=O)c3ccccc32)cc1C,"inconclusive [inhibitor, full curve]",
COc1ccc(S(=O)(=O)NC(=O)C2(C)CCN2C(=O)CC2CCCC2)cc1 (stereo not drawn),,inactive: -17.6%
CCOC(=O)C(=CNc1ccc2c(c1)c1ccccc1n2CC)C(=O)OCC,active: 14.6 µM,
CC(C)Oc1ccc(C(=O)Nc2ccccc2N2CCCC2)cc1,"inconclusive [inhibitor, single point]",
COc1ccc(C2CC(c3ccc(OC)cc3)n3nc(NC(=O)c4ccco4)nc3N2)cc1 (stereo not drawn),,inactive: 5.97%
C/C(=N/NS(=O)(=O)c1ccc(Cl)cc1)c1ccncc1,"inconclusive [inhibitor, single point]",
COc1cccc(CN2CCCC(C(=O)c3ccc4c(c3)OCO4)C2)c1OC (stereo not drawn),"inconclusive [inhibitor, single point]",
O=C(/C=C/c1cn(CC(O)CN2CCCCCC2)c2ccccc12)c1ccccc1 (stereo not drawn),"inconclusive [inhibitor, single point]",
CCOC(=O)c1sc(NC(=O)CCCn2nc([N+](=O)[O-])c(Cl)c2C)c(C(=O)OCC)c1C,"inconclusive [inhibitor, single point]",
O=C(/C=C/c1ccc(F)cc1)NC(=S)Nc1ccccc1C(=O)NC1CCCCC1,active: 16.4 µM,
COc1ccccc1CN1CC(C(=O)NCCN2CCOC2=O)CCC1=O (stereo not drawn),,inactive: 1.49%
CC(=Cc1ccccc1)C(=O)c1ccccc1,"inconclusive [inhibitor, partial curve]",
Cc1nc(N2CCC(C(N)=O)CC2)c2c(-c3cccs3)csc2n1,"inconclusive [inhibitor, partial curve, poor fit]",

SMILES,Potency,"activity change, negative = growth inhibition"
COc1ccc(C(=O)Nc2ccc3c(c2)C(=O)N(C)C3=O)cc1OC,,inactive: 1.57%
CCNC(=O)NC(=O)CSc1ccc(S(=O)(=O)N(C)C2CCCCC2)cn1,"inconclusive [inhibitor, partial curve]",
Cc1ccc(-c2csc3nc(SCC(=O)N(C)C)n(Cc4ccccc4)c(=O)c23)cc1,active: 11.6 µM,
COc1ccc(C2=CC3=C(Br)C(=O)C(C)(OC(=O)c4cccs4)C(=O)C3=CO2)cc1 (stereo not drawn),"inconclusive [inhibitor, single point]",
Cc1cc(C)c(S(=O)(=O)NC2CC(C)(C)NC(C)(C)C2)cc1Br,"inconclusive [inhibitor, single point]",
CSc1nc2oc3c(c2c2nncn12)CC(C)(C)SC3,"inconclusive [inhibitor, single point]",
Cc1ccc(/C=C/S(=O)(=O)NCC(=O)OCC(=O)NCc2ccccc2)cc1,,inactive: 20.7%
N#Cc1cc([N+](=O)[O-])ccc1NC(=O)CSc1n[nH]c(=O)n1C1CC1,,inactive: -16.7%
Cc1cc(C)c2nc(C(F)(F)F)nc(N3CC(C)OC(C)C3)c2c1 (stereo not drawn),"inconclusive [inhibitor, single point]",
COc1cccc(CNC(=O)Nc2cc(C(=O)NCc3cccc(F)c3)ccc2N2CCCC2)c1,"inconclusive [inhibitor, partial curve]",
COc1cc(Br)cc(CN2CCN(C/C=C/c3ccccc3)CC2)c1O,"inconclusive [inhibitor, single point]",
CCC(Oc1ccc(F)cc1)C(=O)Nc1cc(-c2ccc(C)cc2)no1 (stereo not drawn),"inconclusive [inhibitor, single point]",
Cc1ccc(NC(=O)CN2C(=O)c3ccccc3C2=O)nc1,,inactive: -3.73%
COc1ccccc1-c1c(-c2ccc(O)cc2O)n[nH]c1C(F)(F)F,active: 5.8 µM,
CCOC(=O)N1CCC(NC(=O)c2oc3c(C)c(C)ccc3c2C)CC1,active: 20.6 µM,
Fc1ccccc1-c1cc2cc3c(cc2cn1)OCO3,"inconclusive [inhibitor, single point]",
COc1ccccc1-c1nn(Cc2ccccc2)cc1C(=O)N1CCN(c2ncccn2)CC1,active: 25.9 µM,
CCOc1cc(CNC(=O)c2ccc(NC(=O)c3nsc4ccccc34)cc2)ccc1OC,"inconclusive [inhibitor, single point]",
O=C1C2CC=CCC2C(=O)N1c1ccc(Cc2ccncc2)cc1 (stereo not drawn),active: 18.4 µM,
COc1ccccc1N1CCN(C(=O)COc2ccc(Cl)cc2)CC1,,inconclusive: -32.8% [inhibitor]
CCN(CC)c1ccc(NC(=O)c2cc(CN3CCCC3)on2)c(C)c1,active: 16.4 µM,
CC1(C)Cc2c(sc(NC(=O)c3ccc4ncsc4c3)c2C(N)=O)C(C)(C)N1,"inconclusive [inhibitor, single point]",
